Data: patent publication EP2698431B1 (Chugai Seiyaku Kabushiki Kaisha, dated 2020)

What was measured:
Test in all cases: SPR pH7.4
[1] = molecular target: T1, mouse FcγRIV (mouse, UniProt A0A0B4J1G0 21-203)
T1 construct: bought; also called mFcgRIV
T1 sequence: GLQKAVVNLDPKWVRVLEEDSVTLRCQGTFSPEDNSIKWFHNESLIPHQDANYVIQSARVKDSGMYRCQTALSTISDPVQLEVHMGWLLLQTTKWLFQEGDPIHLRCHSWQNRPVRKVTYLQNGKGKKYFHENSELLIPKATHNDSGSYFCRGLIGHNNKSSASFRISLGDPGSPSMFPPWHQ

[2] = molecular target: T2, mouse FcγRIII (mouse, UniProt P08508 31-215)
T2 construct: bought; also called mFcgRIII
T2 sequence (looked up): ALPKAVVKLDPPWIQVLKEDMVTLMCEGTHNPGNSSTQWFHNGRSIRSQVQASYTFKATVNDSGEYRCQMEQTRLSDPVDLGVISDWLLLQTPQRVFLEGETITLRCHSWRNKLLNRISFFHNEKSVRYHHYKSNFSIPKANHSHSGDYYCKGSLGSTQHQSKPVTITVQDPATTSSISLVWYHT

[3] = molecular target: T3, mouse FcγRI (mouse, UniProt P26151 25-297)
T3 construct: bought; also called mFcgRI
T3 sequence (looked up): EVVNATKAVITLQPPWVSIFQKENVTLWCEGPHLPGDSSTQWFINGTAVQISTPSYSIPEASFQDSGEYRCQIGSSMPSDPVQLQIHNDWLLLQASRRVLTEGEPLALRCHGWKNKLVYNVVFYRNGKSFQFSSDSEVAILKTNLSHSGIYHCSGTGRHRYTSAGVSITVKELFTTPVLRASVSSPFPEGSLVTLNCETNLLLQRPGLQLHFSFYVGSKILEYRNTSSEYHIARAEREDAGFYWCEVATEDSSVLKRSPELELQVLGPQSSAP

[4] = molecular target: T4, mouse FcγRIIb (mouse, UniProt P08101 40-217, limits assumed)
T4 construct: bought; also called mFcgRIIb; mFcgRII
T4 sequence (looked up): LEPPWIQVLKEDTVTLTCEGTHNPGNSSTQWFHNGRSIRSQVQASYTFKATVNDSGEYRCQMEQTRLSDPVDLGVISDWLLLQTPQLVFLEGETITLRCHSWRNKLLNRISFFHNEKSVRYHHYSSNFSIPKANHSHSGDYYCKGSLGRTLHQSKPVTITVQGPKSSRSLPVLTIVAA

binding amount [1]: 8.1 RU
binding amount [2]: -15.1 RU
binding amount [3]: -1.9 RU
binding amount [4]: -2.2 RU
B1: VH3/L(WT)-IgG1-F760 (antibody)
chain 1: QVQLQESGPGLVKPSETLSLTCAVSGHSISHDHAWSWVRQPPGEGLEWIGFISYSGITNYNPSLQGRVTISRDNSKNTLYLQMNSLRAEDTAVYYCARSLARTTAMDYWGEGTLVTVSS[human IgG1 constant region with L235R S239K (EU numbers) omitted here]
chain 2: DIQMTQSPSSLSASVGDRVTITCRASQDISSYLNWYQQKPGKAPKLLIYYTSRLHSGVPSRFSGSGSGTDFTFTISSLQPEDIATYYCQQGNTLPYTFGQGTKVEIKRTVAAPSVFIFPPSDEQLKSGTASVVCLLNNFYPREAKVQWKVDNALQSGNSQESVTEQDSKDSTYSLSSTLTLSKADYEKHKVYACEVTHQGLSSPVTKSFNRGEC
